Data as given in PMC4336329 (PLoS ONE, 2015).
Out of some 310,000 compounds screened, about 14,000 (4.5%) showed an effect of 50% or more. Effects have a minus sign here. The list shows a part of the results.

biological target: human ether-à-go-go-related gene (hERG) potassium channel (human, UniProt Q12809); test: primary screen, population patch clamp on CHO cells stably expressing hERG
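Also: peak tail current of the secondary pulse compared with the same well before compound.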

Chain of human ether-à-go-go-related gene (hERG) potassium channel (Q12809 whole entry, looked up): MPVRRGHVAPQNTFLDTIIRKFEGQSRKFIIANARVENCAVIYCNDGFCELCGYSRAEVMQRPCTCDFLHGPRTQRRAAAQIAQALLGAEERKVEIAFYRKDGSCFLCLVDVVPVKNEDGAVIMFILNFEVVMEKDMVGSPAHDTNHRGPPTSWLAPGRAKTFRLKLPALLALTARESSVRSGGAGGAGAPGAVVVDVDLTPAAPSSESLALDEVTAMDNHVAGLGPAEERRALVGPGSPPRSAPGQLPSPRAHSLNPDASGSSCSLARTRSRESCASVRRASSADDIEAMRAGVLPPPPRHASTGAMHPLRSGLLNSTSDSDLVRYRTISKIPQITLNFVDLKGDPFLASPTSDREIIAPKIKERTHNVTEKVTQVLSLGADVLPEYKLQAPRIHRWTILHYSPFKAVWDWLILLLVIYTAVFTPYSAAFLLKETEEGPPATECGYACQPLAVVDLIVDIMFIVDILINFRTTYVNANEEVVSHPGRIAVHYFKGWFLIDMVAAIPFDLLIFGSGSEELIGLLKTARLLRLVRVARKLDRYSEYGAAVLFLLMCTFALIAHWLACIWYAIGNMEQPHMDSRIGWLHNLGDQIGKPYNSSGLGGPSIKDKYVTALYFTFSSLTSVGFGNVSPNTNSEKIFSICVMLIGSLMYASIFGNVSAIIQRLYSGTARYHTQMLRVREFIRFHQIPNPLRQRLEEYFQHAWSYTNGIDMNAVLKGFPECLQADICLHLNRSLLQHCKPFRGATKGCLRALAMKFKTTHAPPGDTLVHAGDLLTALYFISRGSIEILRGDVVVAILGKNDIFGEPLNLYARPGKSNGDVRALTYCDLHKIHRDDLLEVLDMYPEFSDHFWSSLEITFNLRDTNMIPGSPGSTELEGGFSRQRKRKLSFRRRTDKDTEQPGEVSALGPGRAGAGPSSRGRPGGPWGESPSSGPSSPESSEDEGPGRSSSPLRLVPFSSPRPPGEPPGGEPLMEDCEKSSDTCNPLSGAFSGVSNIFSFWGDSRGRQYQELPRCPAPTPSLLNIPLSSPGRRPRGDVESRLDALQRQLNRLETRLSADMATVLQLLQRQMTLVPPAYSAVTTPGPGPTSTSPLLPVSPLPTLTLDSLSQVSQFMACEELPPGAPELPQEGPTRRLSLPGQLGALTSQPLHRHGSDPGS

SMILES	hERG current change (%, negative = inhibition) at 10uM [%]
O=C(Nc1nccs1)NC1CCCCC1	-19.4
Fc1ccccc1NC(=S)N1CCCCC1	-1.26
Cc1cc(C)nc(NC(=O)NS(=O)(=O)Nc2ccc(Br)cn2)n1	17.9
Cc1ccc2nc(N3CCN(C(=O)c4ccc(F)cc4)CC3)c(C#N)cc2c1	-73.6
COc1ccccc1/C=C(/C(=O)OCC(=O)Nc1cc(C)ccc1C)c1ccccc1	21.1
COc1ccc(-n2nc(C(=O)NCC(=O)NCCc3ccc(OC)c(OC)c3)c3ccccc3c2=O)cc1Cl	2.97
Cn1c(=O)c2c(nc(N3CCNCC3)n2Cc2ccccc2Cl)n(C)c1=O	12.3
CCOC(=O)CSc1n[nH]c(-c2ccco2)n1	12.5
COc1ccc(NC(=O)CCn2c(=O)c3cccn3c3ccccc32)cc1	-1.02
COCCNC(=O)C(=O)NCC1OCCCN1S(=O)(=O)c1cccs1 (centres unmarked)	-0.83
Cc1cccn2c(CN(C)C3CCOC3)c(C(=O)N3CCCCC3)nc12 (centres unmarked)	32.3
Cc1ccccc1CNC(=O)C(=O)NCCC1CCCCN1S(=O)(=O)c1cccs1 (centres unmarked)	-12.8
Cc1nn(Cc2ccccc2)c(C)c1NC(=O)c1cc(-c2cccs2)on1	0.998
C/C(=N\OCC(=O)Nn1c(C)nc2ccccc2c1=O)c1ccccc1	-13.8
Cc1ccc(/C=N/N2CCN(Cc3ccccc3)CC2)s1	-15.7
NNc1ccc(Cc2ccc(Cl)cc2Cl)nn1	6.66
CN=C(Nc1ccccc1OC)SC1CC(=O)N(c2ccc(C(=O)OC)cc2)C1=O (centres unmarked)	-12.5
COc1cccc(C(=O)Nc2ccc(NC(C)=O)cn2)c1	6.26
COc1ccc(C(C)=O)c(Oc2cc(NN3CCCCC3)c([N+](=O)[O-])cc2[N+](=O)[O-])c1	10.1
CCCCc1ccc(NC(=S)N2CCCC2)cc1	10.7
O=C(NCc1ccco1)/C(=C/c1cccc([N+](=O)[O-])c1)NC(=O)c1ccco1	-56.8
O=C(CN1CCCCCC1)N/N=C/c1ccc2ccccc2c1	-64.6

SMILES	hERG current change (%, negative = inhibition) at 10uM [%]
CCOc1cc(CNc2ccccc2)cc(Br)c1OCC(=O)NC(C)(C)C	2.76
O=C(Nc1ccc(N2CCOCC2)cc1)c1ccccc1SCC(=O)N1CCCC1	-0.824
CCCN(CCC)C(=O)Cn1c(=O)n(CCC(=O)NCCc2ccccc2)c(=O)c2ccccc21	-25
Cc1cc(C)n(-c2n[nH]c(C)c2[N+](=O)[O-])n1	3.22
Cc1ccc(OCC(=O)NCCc2c[nH]c3ccccc23)cc1	17.1
COc1ccc(S(=O)(=O)N2CCCOC2CNC(=O)C(=O)NCc2ccco2)cc1C (centres unmarked)	-11.4
COc1ccccc1NC(=O)c1ccccc1S(=O)(=O)c1ccccc1[N+](=O)[O-]	8.91
COc1ccc(NC(C)=O)cc1NC(C)C(=O)Nc1ccc(F)c(F)c1F (centres unmarked)	1.83
O=C(NCC1COc2ccccc2O1)c1ccc(NC(=O)c2ccco2)cc1 (centres unmarked)	-11.2
O=S(=O)(c1ccccc1)N1CCN(C2CCCCCCC2)CC1	-8.74
COc1ccc(OC)c(NC(=O)CSc2nnnn2-c2ccc3c(c2)OCO3)c1	-7.22
O=C(/C=C/c1cccc([N+](=O)[O-])c1)Nc1cccc(NC(=O)c2ccco2)c1	-18.3
Cn1c(-[n+]2c(-c3ccccc3)cc(-c3ccccc3)cc2-c2ccccc2)nc2c([N+](=O)[O-])cccc21.[I-]	-31
Cc1ccc(-c2nn(-c3ccccc3)cc2C(=O)N2CCOCC2)cc1	4.15
Cc1cc(C)c(NC(=S)NC(=O)c2ccc(-c3ccccc3)cc2)c(C)c1	9.6
COc1cc(C(=O)n2nc(C)cc2C)cc(OC)c1OC	16.2
COc1ccc(-n2nnnc2SCC(=O)NC2CCCC2)cc1OC	13.8
CCN(CCCNC(=O)CC(C(=O)N1CCc2ccccc21)n1ccnc1)c1cccc(C)c1 (centres unmarked)	-65
CCN(c1ccccc1)S(=O)(=O)c1ccc(OC)c(NS(=O)(=O)c2cccs2)c1	-11.2
CC(C)(C)CC(C)(C)NC(=O)CSCC(=O)Nc1ccc2ccccc2c1	-6.75
CCCC(=O)Nc1c(C(=O)OCC)oc2ccccc12	1.98
COc1ccc(S(=O)(=O)N2CCOC2CNC(=O)C(=O)NCCc2ccccc2OC)cc1 (centres unmarked)	-9.14

SMILES	hERG current change (%, negative = inhibition) at 10uM [%]
CCCCn1c(SCC(=O)N(CC)C2CCS(=O)(=O)C2)nnc1C(CC)N(C)C (centres unmarked)	8.8
CC(=O)c1ccc(S(=O)(=O)NCc2ccc(C(=O)N(C)CC(=O)Nc3cccc(F)c3)cc2)cc1	10.8
Clc1ccc(OCCOCCNCc2ccccc2)cc1Cl.O=C(O)C(=O)O	-44.1
COC(=O)c1ccc(S(=O)(=O)N2CCCCCC2)n1C	13.3
Cc1ccc2c(CC(=O)NNC(=O)c3ccncc3)coc2c1	14.6
Cc1csc(NC(=O)c2c(-c3c(Cl)cccc3Cl)noc2C)n1	6.22
CC1CCC2(CC1)NC(=O)N(CC(=O)Nc1nc(-c3ccc(F)cc3)cs1)C2=O (centres unmarked)	15.2
CN1CCc2c(sc3nc(SCC(=O)NCc4ccco4)n(-c4ccccc4)c(=O)c23)C1	-10.6
CCOc1ccc(-c2nc(C)c(C(C)=O)n2O)cc1	-0.685
O=C(NCCC1=CCCCC1)C(=O)NCC(c1ccco1)N1CCN(c2ccccc2F)CC1 (centres unmarked)	2.07
Cc1ccc(S(=O)(=O)NC(=O)CSc2nc3ccccc3s2)cc1	-6.94
O=C(NCCc1cnn(-c2ccccc2)c1)c1cc(COc2c(F)cccc2F)on1	-3.63
O=C(CSc1nnc2c(n1)[nH]c1ccc(S(=O)(=O)N3CCOCC3)cc12)Nc1ccccc1Cl	12.8
Cc1cccc(OC(=O)Cn2c(C(F)(F)F)nc3ccccc32)c1	17.6
C=CCn1c(CCC(=O)O)ccc1-c1ccc(OC)cc1	12.3
Cc1cc(C)nc(NC(=S)Nc2ccc(F)cc2F)c1	3.45
COc1ccccc1CNC(=O)c1cc(S(=O)(=O)N2CCCC2)cn1C	-4.26
Cc1cc2cc(CCNC(=O)C(C)C)c(=O)[nH]c2cc1C	2.03
Cc1ccc(C(=O)COC(=O)c2n[nH]c(=O)c3ccccc23)cc1	6.94
CC(NC(=O)C(=O)NCCc1c[nH]c2ccccc12)c1ccccc1 (centres unmarked)	14
Cc1ccc(S(=O)(=O)N2[C@@H](c3ccccc3F)C(C(=O)O)=CC[C@H]2c2cccc(C)c2)cc1	3.74
Cc1c(C(=O)N/N=C/C(C)C)[nH]c2ccc([N+](=O)[O-])cc12	-9.03

SMILES	hERG current change (%, negative = inhibition) at 10uM [%]
CCN(Cc1ccccc1)C(=O)c1cc2cc(OC)c(OC)cc2[nH]1	14
O=C(O)CSc1c2c(nc3cc(C(=O)N4CCCC4)ccc13)CCCC2	16.8
CC/C(=N\NC(=O)Nc1nonc1N)c1ccc(OC)c(OC)c1	4.9
CC12CC3CC(C)(C1)CC(C(O)CN1CCOCC1)(C3)C2.Cl (centres unmarked)	1.62
CN(C)CCn1c(C(=O)O)cc2ccccc21.Cl	14.6
COC(=O)c1ccccc1NC(=O)Cn1c(=O)n(Cc2ccccc2)c(=O)c2c(C)c(C)sc21	5.13
Cc1ccc(C(=O)CN(CCCC(N)=O)S(=O)(=O)c2ccc([N+](=O)[O-])cc2)cc1	-66.7
CCN(CC)S(=O)(=O)c1cc(NC(=O)COC(=O)c2sc3ccccc3c2Cl)ccc1C	17.8
CC(NC(=O)/C=C/c1ccc(Br)cc1)c1ccc(Cl)cc1 (centres unmarked)	8.23
Cc1ccc(S(=O)(=O)CC(O)COc2ccc(F)cc2Cl)c(C)c1 (centres unmarked)	6.28
CCCCn1nnnc1SCC(=O)c1cc(Cl)ccc1OC	-28.7
O=C(NC1CCCc2c1cnn2-c1ccc(F)cc1F)c1csnn1 (centres unmarked)	16.9
CN1/C(=C/C(=S)NC(=O)C2CCC2)C(C)(C)c2ccccc21	21.2
Cc1ccc(Nc2nc(C(=O)NCCCN3CCOCC3)cs2)cc1	-45.9
CCCN1C(=O)c2cc(C(=O)Nc3cccc(C(C)=O)c3)ccc2C1Nc1cccc(C(C)=O)c1 (centres unmarked)	-5.36
COc1ccc(-c2nc(-c3ccc4c(c3)OCO4)[nH]c2-c2ccc(OC)cc2)cc1	24.8
Cn1cc(C(=O)c2ccc(Cl)cc2Cl)cc1C(=O)N/N=C(\N)COc1ccc(F)cc1	-30.3
CCCCNc1ccc(S(N)(=O)=O)cc1[N+](=O)[O-]	-0.608
CCCCSc1nc2sc3c(c2c(=O)[nH]1)CC(C)(CC)OC3 (centres unmarked)	28.8
Cc1cccc(OCC(=O)O/N=C(\N)c2ccccn2)c1C	-5.6
